Data: PMC12136788
This is one part of the list.

T1: UNK ZnF1-6 (called full-length) (human, UniProt Q9C0B0 30-357)
T1 sequence: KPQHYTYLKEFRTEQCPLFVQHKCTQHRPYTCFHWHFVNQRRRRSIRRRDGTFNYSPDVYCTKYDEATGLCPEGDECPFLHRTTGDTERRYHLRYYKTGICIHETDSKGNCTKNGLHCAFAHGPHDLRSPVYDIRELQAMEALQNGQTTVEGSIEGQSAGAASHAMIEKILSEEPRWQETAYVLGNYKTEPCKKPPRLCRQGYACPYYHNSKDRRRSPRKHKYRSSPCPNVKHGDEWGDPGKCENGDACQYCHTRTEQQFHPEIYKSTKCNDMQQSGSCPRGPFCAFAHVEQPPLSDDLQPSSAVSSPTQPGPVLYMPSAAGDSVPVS

B1: chr1:35190724:35191005:-|CDS|ENSG00000116560|unk|FALSE|unique (ssRNA)
RNA: GGGAGUUCUACAGUCCGACGAUCGCCCUUUCUGUUCGUAAUCUUUCACCUUAUGUUUCCAAUGAACUGUUGGAAGAAGCCUUUAGCCAAUUUGGUCCUAUUGAAAGGGCUGUUGUAAUAGUGGAUGAUCGUGGAAGAUCUACACAACAGAGGAUUGAGCAUCA
B2: chr9:14618660:14618761:-|3pUTR|ENSG00000175893|msi1|total|mutant (ssRNA)
RNA: GGGAGUUCUACAGUCCGACGAUCUCCGCUUUCCACAGGGAUUUCUUGAAAUGCUUUUGUUAUUAAACUCAAAAGGCAGUGAUCCGGAUGAAAUAAUUGUACAUAAUUUAUUUCCGUACUGACAGUGUUACAGAUUCUAAUUUACAACAGAGGAUUGAGCAUCA
B3: chr5:40767470:40767586:-|CDS|ENSG00000132356|unk|total|mutant (ssRNA)
RNA: GGGAGUUCUACAGUCCGACGAUCUUUAAGAAGAUAUGUGAUGGGAUCUUCUAUACCCCUCAAUAUUUAAAUCCUUCUGUGAUCCGCCUUUUGAAACAUAUGCUGCAGGUGGAUCCCAUGAAGAGGGCCACAAUCAAAGAUAUCCAACAGAGGAUUGAGCAUCA
B4: chr1:20652278:20652361:-|3pUTR|ENSG00000244038|msi1_unk|FALSE|overlapping (ssRNA)
RNA: GGGAGUUCUACAGUCCGACGAUCGACUGAGGGGCUAGAGCCCUCUCCGCACAGCGUGGAGACGGGGCAAGGAGGGGGGUUAUUAGGAUUGGUGGUUUUGUUUUGCUUUGUUUAAAGCCGUGGGAAAAUGGCACAACUUUACCUCAACAGAGGAUUGAGCAUCA
B5: chr2:189754195:189754303:-|CDS|ENSG00000128694|unk|total|mutant (ssRNA)
RNA: GGGAGUUCUACAGUCCGACGAUCCCAGAGUGCUCCACCAUGAGUGGUGGGAAAGCCACCGAACAUUUGGCCAAACAAGGAAACCGAUUUCAUUUUGACAUCAAACCUCCCUUGCAUCAUGCUAAAAAUUGUGAUUUUUCUUUUCAACAGAGGAUUGAGCAUCA
B6: chr8:116846039:116846140:-|3pUTR|ENSG00000164754|msi1|FALSE|bound_elsewhere (ssRNA)
RNA: GGGAGUUCUACAGUCCGACGAUCACAUUCAAUAUGAUGUGCCUGUAAACCAAGGAGUUUUCCCCGUUUGUAAAAAGACAUUGUAGAUAAUUGAAUGUUUGAUUUUAGAAAGGUCAUUAGUUUCUUGUUACACAUUUUGUUAGUCAACAGAGGAUUGAGCAUCA
B7: chr5:60870179:60870280:-|3pUTR|ENSG00000049167|unk|FALSE|unique (ssRNA)
RNA: GGGAGUUCUACAGUCCGACGAUCUCUCCUUGCCCUUUUUGUUUUGUUUUGUUUCAAUUCUUAGAACUGUAGUUGGCAUGUAGUAGGUGCUUAAUAAUUACUUGUUUUGUUGUUUCUGUCCUAUACUUUGAGAGUUUGUGUUUGCAACAGAGGAUUGAGCAUCA
B8: chr1:183142599:183142700:+|CDS|ENSG00000135862|msi1|total|mutant (ssRNA)
RNA: GGGAGUUCUACAGUCCGACGAUCAACGAGAUUGAAGGCACCCUAAACAAAGCCAAAGAUGAAAUGAAGGUCAGCGAUCUUGACCGGAAAGUGUCUGACCUGGAGAAUGAAGCCAAGAAGCAGGAGGCUGCCAUCAUGGACUAUCAACAGAGGAUUGAGCAUCA
B9: ENSG00000070961:be:win_6001|3pUTR|ENSG00000070961|bound_else_gene|NA|bound_elsewhere_windowed (ssRNA)
RNA: GGGAGUUCUACAGUCCGACGAUCCAAGACAUGCUUAGUGUGUAUUUCUCUCUUUGAGACACUGUAAUUUCUACCAGAAAUUUCCAGAGCAUUAUGUAGGUAGAAAAAAAUGCAAGCAAGCUGUUAAAGAUCUUGGAUCCCAUUCAACAGAGGAUUGAGCAUCA
B10: chr11:130144177:130144243:+|3pUTR|ENSG00000084234|msi1_unk|total|mutant (ssRNA)
RNA: GGGAGUUCUACAGUCCGACGAUCAUGAGGGUGUCCGCUGCUGCUUUCCUUCGGAAUCCAGUGCUUCCACAGAGAUCCGCCUGCCGCUUAUAUUUGACAUUCUUCACUGUCUGUUGUUUACCUACCGCCGCUUUUUACCGUUCACAACAGAGGAUUGAGCAUCA
B11: ENSG00000112679:stop:overlap|stop_codon|ENSG00000112679|stop_codon|NA|stop_codon (ssRNA)
RNA: GGGAGUUCUACAGUCCGACGAUCGCUUCCAGAGACAGCUCCAGGAGUUUGAGAAGCAUGAGGUCCAUCAGGUAAGCAGUUCUUAGGGGACAUCAGAGAUGCAGGCAGGUGCCCCUGAACGGUGCCCACAGUCUUUCCGUACACCAACAGAGGAUUGAGCAUCA
B12: chr1:155134173:155134274:+|3pUTR|ENSG00000169242|msi1|total|mutant (ssRNA)
RNA: GGGAGUUCUACAGUCCGACGAUCGCCACUUUCAGAGCCCCCAGCCCUGGGAACCACUCCCACCACAGGCAUAAGCUAUCACCCCGCAGCCUCAAAACGGGUCAGUAUUAAGGUUUUCAACCGGAAGGAGGCCAACCAGCCCGACAACAGAGGAUUGAGCAUCA
B13: chr17:67340809:67340863:-|CDS_3pUTR|ENSG00000197170|msi1_unk|FALSE|overlapping (ssRNA)
RNA: GGGAGUUCUACAGUCCGACGAUCACAAAACUACGCAUCUCAUAGCCAAAGAGGAGAUGAUACAUAAUCUACAAUAAGGGUCUUAGUGCUUUAGAAAAAAGUUAAAAUUGGAAGUCAUUAAAAAAAGACUGUUAUAAUGGUGUACAACAGAGGAUUGAGCAUCA
B14: chr19:35623609:35623710:+|3pUTR|ENSG00000249115|unk|FALSE|unique (ssRNA)
RNA: GGGAGUUCUACAGUCCGACGAUCGCCUUCUAGUUUGUAUAGUUUCUUUUUUUACAUGUAAAUCAGCCAUUUGGAAUUUAUCCUAGCACAUGGAUCCAAUUUUGUCUUAUUUUACAUAUAUCCUAGUAGCACUUACUGAAAUUCCAACAGAGGAUUGAGCAUCA
B15: chr14:99169286:99174150:-|three_prime_utr|ENSG00000127152|control|control|control (ssRNA)
RNA: GGGAGUUCUACAGUCCGACGAUCAAUUCCUUUAAGAGAUUUUGUUGGGUAUCCAUCCCUUCUUUGUUUUUUUUUUAACCCGGUAGUAGCCUGAGCAAUGACUCGCAAGCAAUGUUAGAGGGGAAGCAUAUCUUUUAAAUUAUACAACAGAGGAUUGAGCAUCA
B16: chr1:13115521:13116400:-|CDS|ENSG00000275774|control|control|control (ssRNA)
RNA: GGGAGUUCUACAGUCCGACGAUCGAACAGAGCAAACAAGAGGUAGAGGUGAAAAAUGCUAAGUCAGAAGAGGAGCAGAGCAGUAGCUCCAUGAAGAAAGAUGAGACUCAUGUAAAGAUGGAGUCUGAGGGGGGUGCAGAAGACCAACAGAGGAUUGAGCAUCA
B17: chr19:45711045:45711146:-|3pUTR|ENSG00000177051|msi1|FALSE|bound_elsewhere (ssRNA)
RNA: GGGAGUUCUACAGUCCGACGAUCGAAUUGGGGGCUGUCAGGUCACAGGUGGGAUCUGGCAUUUUUUUAUGACAGUCCAUUUCUAGAUGGUUUGCCUAUUAAAGAAGUGGGGGGGAAAUACUGUUUUCUCCUUAACCUCAAGCUCAACAGAGGAUUGAGCAUCA
B18: chrX:14865087:14865190:-|CDS|ENSG00000181544|unk|total|mutant (ssRNA)
RNA: GGGAGUUCUACAGUCCGACGAUCAUAUUUUUUACUAAUCCUUCACAGUACUAAUAAAUUUGAAAUGCGUUUGAGUUUUAAACCCGGCUAUGAGAUGAAGGAUGGCCUAAGGGUCCUUAAUGGCCCUUUAAUUUUAUGGAGGCACAACAGAGGAUUGAGCAUCA
B19: ENSG00000136451:be:win_3001|3pUTR|ENSG00000136451|bound_else_gene|NA|bound_elsewhere_windowed (ssRNA)
RNA: GGGAGUUCUACAGUCCGACGAUCUGGUUUUUUUCAUUUUUUAAUCAUUGCAGUUAAGAGAAAUGGAAAUUAGUUGUGUUAAUCUUGCAGAAUGUUUGCAGGACUGACUAUCAAACUGGAUGAUUUCCAUUUAUACCCUACUGUCAACAGAGGAUUGAGCAUCA
B20: chr3:105576037:105576138:+|3pUTR|ENSG00000170017|msi1|total|mutant (ssRNA)
RNA: GGGAGUUCUACAGUCCGACGAUCCUCCGUUUAAUAAAAGCUUCCGCCGUGCAUUGGUAUGGAUUAAAUGCAUAAAAUAUUCUCCGACUCGAUGCUGUAUAAAAUAUUAUGGGAAAAAAAGAAAAUACGUUAUUUUGCCUCUAACAACAGAGGAUUGAGCAUCA
B21: chrX:120253675:120253799:+|CDS|ENSG00000177485|unk|FALSE|bound_elsewhere (ssRNA)
RNA: GGGAGUUCUACAGUCCGACGAUCUAAAAUUGUUCGUGUUAGAUCAGAUUUGCUUGAUGAGUUAAUUAAAUCAGGGCAGUUAUUAGGAGUGAAAUUUAUAGCAGAGCUUGGUGUCCCAUUGUCACAGGUUAAAAGCAUCUCAGGCAACAGAGGAUUGAGCAUCA
B22: chr1:18907414:18907603:-|3pUTR|ENSG00000169991|msi1|total|mutant (ssRNA)
RNA: GGGAGUUCUACAGUCCGACGAUCCCUUGAUUUCCCUGAUAACUUGAUGUUCUUCCCUCCCUCGCCAGCCAACAACCGAGGCUCCGAGAUCUGUAAUUUCUCUGUGAGAAAGUCUGAAGGGGCCAGGCCUGGUCUCUGCUCCCUCAACAGAGGAUUGAGCAUCA

What follows are binders tested against T1, UNK ZnF1-6 (called full-length) (assay: nsRBNS (natural sequence RNA bind-n-seq); RBNS binding buffer (assumed for nsRBNS): 25 mM Tris pH 7.5, 150 mM KCl, 3 mM MgCl2, 0.01% Triton X-100, 500 ug/ml BSA, 20 U/ml SUPERase-In, 4 C; UNK is unkempt and MSI1 is Musashi-1; names of the RNAs are library labels; protein concentration not given here; high values mean tight binding).

| Binder | binding signal [enrichment R] |
| --- | --- |
| B1 | 0.393 |
| B2 | 0.481 |
| B3 | 0.488 |
| B4 | 1.06 |
| B5 | 0.431 |
| B6 | 5.22 |
| B7 | 2.76 |
| B8 | 0.732 |
| B9 | 0.346 |
| B10 | 0.644 |
| B11 | 0.556 |
| B12 | 0.961 |
| B13 | 0.932 |
| B14 | 14.9 |
| B15 | 1.39 |
| B16 | 0.882 |
| B17 | 0.636 |
| B18 | 0.538 |
| B19 | 0.499 |
| B20 | 0.529 |
| B21 | 1.83 |
| B22 | 0.733 |
